# T1: human GFRAL (UniProtKB-Q6UXVO) (human, UniProt Q6UXV0 19-394)
# T1 sequence (looked up): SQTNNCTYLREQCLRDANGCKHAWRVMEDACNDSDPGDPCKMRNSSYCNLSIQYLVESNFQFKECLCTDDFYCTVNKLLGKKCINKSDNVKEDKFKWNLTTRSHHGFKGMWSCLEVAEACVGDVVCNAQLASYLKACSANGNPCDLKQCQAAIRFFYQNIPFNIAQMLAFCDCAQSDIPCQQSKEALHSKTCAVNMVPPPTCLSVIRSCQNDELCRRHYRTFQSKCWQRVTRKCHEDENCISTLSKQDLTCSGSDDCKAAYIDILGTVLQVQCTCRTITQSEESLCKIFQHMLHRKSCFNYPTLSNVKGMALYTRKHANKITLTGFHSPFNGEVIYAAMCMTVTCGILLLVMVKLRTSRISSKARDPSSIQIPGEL
# B1: Fc-GDF15 fusion protein M12 (Fc fusion)
# chain: [sequence of human IgG1 Fc with L234A L235A K439E (EU numbers) not given]GGGGSGGGGSAPAPAPAPAPAPAPAPAPAPGGGGSGGGGSDHCPLGPGRCCRLHTVRASLEDLGWADWVLSPREVQVTMCIGACPSQFRAANMHAQIKTSLHRLKPDTVPAPCCVPASYNPMVLIQKTDTGVSLQTYDDLLAKDCHCI
# B2: Fc-GDF15 fusion protein M14 (Fc fusion)
# chain: [sequence of human IgG4 Fc not given]GGGGSGGGGSAPAPAPAPAPAPAPAPAPAPGGGGSGGGGSDHCPLGPGRCCRLHTVRASLEDLGWADWVLSPREVQVTMCIGACPSQFRAANMHAQIKTSLHRLKPDTVPAPCCVPASYNPMVLIQKTDTGVSLQTYDDLLAKDCHCI
# B3: Fc-GDF15 fusion protein M17 (Fc fusion)
# chain: [sequence of human IgG4 Fc with K439E (EU numbers) not given]GGGGAPAPAPAPAPAPAPAPAPAPGGGGGDHCPLGPGRCCRLHTVRASLEDLGWADWVLSPREVQVTMCIGACPSQFRAANMHAQIKTSLHRLKPDTVPAPCCVPASYNPMVLIQKTDTGVSLQTYDDLLAKDCHCI
# B4: Fc-GDF15 fusion protein M18 (Fc fusion)
# chain: [sequence of human IgG4 Fc with K439E (EU numbers) not given]GGGGSGGGGSEPEPEPEPEPEPEPEPEPEPGGGGSGGGGSDHCPLGPGRCCRLHTVRASLEDLGWADWVLSPREVQVTMCIGACPSQFRAANMHAQIKTSLHRLKPDTVPAPCCVPASYNPMVLIQKTDTGVSLQTYDDLLAKDCHCI
# B5: Fc-GDF15 fusion protein M1 (Fc fusion)
# chain: [sequence of human IgG4 Fc with F234A L235A (EU numbers) not given]GGGGSGGGGSAPAPAPAPAPAPAPAPAPAPGGGGSGGGGSDHCPLGPGRCCRLHTVRASLEDLGWADWVLSPREVQVTMCIGACPSQFRAANMHAQIKTSLHRLKPDTVPAPCCVPASYNPMVLIQKTDTGVSLQTYDDLLAKDCHCI
# B6: Fc-GDF15 fusion protein M19 (Fc fusion)
# chain: [sequence of human IgG4 Fc with K439E (EU numbers) not given]GGGGSGGGGSGGGGSGGGGSGGGGSGGGGSGGGGSGGGGSDHCPLGPGRCCRLHTVRASLEDLGWADWVLSPREVQVTMCIGACPSQFRAANMHAQIKTSLHRLKPDTVPAPCCVPASYNPMVLIQKTDTGVSLQTYDDLLAKDCHCI
# Target: T1, human GFRAL (UniProtKB-Q6UXVO)
# Test: cell-based or functional assay
row,Binder,"Relative activity ratio (native GDF15 EC50: Fc-GDF15 construct EC50), ERK1/2 phosphorylation HTRF in HEK293T cells expressing human GFRAL and RET"
1,B1,0.97 ratio
2,B2,1.18 ratio
3,B3,1.31 ratio
4,B4,1.69 ratio
5,B5,2.66 ratio
6,B6,1.19 ratio

# From patent US20240350588A1 (SUNSHINE LAKE PHARMA, published 2024)
